Four substances from article PMC10561363 can be followed below.

Chains of the proteins cited; added tags and fusions are not shown.
UniProt Q01959: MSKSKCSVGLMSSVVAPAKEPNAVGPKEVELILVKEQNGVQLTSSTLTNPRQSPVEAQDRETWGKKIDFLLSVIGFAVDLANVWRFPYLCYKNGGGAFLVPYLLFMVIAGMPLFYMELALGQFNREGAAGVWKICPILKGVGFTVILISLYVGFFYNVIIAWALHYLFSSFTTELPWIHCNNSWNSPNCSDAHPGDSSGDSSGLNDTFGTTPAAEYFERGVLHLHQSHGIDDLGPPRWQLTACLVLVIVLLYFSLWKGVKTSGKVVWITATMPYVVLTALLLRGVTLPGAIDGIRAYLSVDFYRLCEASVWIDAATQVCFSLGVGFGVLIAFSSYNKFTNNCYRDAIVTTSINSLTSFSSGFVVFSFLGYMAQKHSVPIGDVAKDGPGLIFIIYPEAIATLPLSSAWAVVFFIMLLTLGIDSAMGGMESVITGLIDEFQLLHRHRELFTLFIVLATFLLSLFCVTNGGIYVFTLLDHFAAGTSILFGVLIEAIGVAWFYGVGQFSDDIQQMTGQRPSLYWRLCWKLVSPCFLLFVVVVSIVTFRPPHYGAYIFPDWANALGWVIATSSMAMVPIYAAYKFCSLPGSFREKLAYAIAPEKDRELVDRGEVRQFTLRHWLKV
UniProt P23975: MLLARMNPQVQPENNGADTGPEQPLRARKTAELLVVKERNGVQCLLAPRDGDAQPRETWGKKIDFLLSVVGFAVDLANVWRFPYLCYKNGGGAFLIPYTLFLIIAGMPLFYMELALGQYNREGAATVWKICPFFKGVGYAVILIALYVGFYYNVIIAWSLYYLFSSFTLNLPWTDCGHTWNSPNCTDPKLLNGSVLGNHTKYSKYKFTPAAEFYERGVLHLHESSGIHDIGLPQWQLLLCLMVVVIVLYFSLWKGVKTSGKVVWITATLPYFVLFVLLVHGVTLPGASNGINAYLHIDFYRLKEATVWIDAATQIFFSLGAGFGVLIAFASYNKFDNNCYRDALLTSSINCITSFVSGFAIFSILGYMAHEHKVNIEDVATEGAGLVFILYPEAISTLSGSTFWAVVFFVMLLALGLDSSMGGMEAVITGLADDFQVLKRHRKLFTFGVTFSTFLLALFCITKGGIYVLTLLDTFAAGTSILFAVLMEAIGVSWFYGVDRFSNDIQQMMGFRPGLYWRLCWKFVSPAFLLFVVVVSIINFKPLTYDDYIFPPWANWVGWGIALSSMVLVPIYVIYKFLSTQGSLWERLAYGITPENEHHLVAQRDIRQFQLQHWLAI
UniProt P30531: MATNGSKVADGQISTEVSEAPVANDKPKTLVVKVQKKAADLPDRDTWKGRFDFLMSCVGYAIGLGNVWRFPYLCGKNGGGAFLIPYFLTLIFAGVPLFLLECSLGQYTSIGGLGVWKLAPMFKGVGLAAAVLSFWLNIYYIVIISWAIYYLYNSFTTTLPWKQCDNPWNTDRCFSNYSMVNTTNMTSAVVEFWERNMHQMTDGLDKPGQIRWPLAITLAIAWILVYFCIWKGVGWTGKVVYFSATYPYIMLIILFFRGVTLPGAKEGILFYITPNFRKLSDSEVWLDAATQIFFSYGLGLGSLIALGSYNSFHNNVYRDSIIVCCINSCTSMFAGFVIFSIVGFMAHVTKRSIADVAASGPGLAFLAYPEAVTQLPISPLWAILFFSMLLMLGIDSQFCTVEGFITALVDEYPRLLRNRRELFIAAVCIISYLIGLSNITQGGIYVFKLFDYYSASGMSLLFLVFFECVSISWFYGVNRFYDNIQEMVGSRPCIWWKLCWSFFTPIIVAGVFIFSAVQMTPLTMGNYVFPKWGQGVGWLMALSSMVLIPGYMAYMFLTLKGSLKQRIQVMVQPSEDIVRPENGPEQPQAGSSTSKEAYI
UniProt O60566: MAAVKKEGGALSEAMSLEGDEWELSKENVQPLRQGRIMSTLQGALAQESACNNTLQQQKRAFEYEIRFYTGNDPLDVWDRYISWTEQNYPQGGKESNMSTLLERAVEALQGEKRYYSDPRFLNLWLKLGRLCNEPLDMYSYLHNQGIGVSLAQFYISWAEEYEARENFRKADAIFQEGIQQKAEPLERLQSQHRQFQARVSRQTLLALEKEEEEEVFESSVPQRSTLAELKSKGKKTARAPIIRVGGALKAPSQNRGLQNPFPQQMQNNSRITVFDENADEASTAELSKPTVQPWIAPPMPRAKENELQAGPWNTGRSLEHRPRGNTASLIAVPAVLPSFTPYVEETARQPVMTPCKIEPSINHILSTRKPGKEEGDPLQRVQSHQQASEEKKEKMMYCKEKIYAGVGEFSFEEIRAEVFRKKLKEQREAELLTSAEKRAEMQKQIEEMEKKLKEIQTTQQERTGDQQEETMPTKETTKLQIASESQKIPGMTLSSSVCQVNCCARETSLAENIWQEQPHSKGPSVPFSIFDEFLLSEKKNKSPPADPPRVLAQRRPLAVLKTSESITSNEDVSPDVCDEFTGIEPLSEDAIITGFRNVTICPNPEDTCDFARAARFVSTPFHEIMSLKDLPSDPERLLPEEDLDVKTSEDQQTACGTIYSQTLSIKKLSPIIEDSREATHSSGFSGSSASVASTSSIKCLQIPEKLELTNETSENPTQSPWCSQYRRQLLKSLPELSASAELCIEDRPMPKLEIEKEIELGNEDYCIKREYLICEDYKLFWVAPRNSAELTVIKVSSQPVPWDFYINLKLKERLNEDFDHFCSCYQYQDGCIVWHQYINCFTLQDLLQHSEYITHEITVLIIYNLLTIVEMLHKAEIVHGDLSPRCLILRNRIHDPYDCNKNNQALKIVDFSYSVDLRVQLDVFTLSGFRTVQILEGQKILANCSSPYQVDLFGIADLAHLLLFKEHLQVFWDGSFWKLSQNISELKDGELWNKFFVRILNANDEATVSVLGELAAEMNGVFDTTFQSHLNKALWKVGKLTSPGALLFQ
UniProt Q13257: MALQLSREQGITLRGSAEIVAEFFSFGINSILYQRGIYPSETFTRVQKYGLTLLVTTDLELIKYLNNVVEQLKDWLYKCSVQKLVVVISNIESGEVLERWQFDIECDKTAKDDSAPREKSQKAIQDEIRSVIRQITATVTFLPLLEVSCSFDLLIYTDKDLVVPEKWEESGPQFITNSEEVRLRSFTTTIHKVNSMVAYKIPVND
UniProt P04406: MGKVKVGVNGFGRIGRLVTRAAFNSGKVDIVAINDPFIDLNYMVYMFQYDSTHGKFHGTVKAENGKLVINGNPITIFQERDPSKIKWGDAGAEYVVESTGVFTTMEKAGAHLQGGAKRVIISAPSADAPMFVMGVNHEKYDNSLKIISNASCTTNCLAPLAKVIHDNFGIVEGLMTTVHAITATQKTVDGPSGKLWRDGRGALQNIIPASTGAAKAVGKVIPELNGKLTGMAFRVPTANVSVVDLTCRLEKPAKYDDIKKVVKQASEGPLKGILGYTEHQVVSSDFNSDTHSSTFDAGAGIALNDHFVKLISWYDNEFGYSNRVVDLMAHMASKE
UniProt P63010: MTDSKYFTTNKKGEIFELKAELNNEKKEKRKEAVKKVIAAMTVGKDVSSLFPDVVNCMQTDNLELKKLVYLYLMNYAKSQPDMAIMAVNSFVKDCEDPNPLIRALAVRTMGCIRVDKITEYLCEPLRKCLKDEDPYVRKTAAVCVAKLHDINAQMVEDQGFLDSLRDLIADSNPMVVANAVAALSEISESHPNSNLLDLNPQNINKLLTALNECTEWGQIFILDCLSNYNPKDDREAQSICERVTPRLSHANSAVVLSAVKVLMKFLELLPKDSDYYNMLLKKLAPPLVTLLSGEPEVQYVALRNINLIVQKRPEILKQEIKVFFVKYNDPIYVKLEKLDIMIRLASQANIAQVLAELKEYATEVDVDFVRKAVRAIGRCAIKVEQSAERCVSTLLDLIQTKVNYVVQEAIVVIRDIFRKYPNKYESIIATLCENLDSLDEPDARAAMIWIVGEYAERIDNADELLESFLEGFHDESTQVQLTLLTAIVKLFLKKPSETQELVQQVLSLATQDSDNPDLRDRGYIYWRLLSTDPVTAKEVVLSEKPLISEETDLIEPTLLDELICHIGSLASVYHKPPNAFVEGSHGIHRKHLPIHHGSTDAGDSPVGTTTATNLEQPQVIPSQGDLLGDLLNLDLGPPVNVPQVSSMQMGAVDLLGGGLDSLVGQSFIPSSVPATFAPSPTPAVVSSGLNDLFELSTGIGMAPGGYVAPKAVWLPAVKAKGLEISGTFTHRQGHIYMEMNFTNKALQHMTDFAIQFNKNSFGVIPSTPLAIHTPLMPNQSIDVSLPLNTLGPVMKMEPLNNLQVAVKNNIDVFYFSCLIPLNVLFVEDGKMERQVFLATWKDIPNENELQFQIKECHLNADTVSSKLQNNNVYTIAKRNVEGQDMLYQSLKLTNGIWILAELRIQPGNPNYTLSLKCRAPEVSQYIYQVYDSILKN

What all share (test): co-IP; GFP-Trap agarose on lysates of HEK-293 cells stably expressing YFP-tagged transporters, 90 min at 4°C, co-IP lysis buffer; immunoblot; for YFP-hSERT also after control or MAD2 siRNA (BubR1 substantially reduced, β2-adaptin down by about 50%, p31^comet not significantly changed, HSP70 unaffected)
Assay [1] deals with N-terminally YFP-tagged human dopamine transporter (human) (UniProt Q01959).
Assay [2] deals with N-terminally YFP-tagged human norepinephrine transporter (human) (UniProt P23975).
The target in assay [3] is YFP-tagged human GABA transporter 1 (human) (UniProt P30531).

These are yes or no findings as the source states them, for the method shown. Binding seen in cells or lysates may run through a third protein. Some entries that bind do so weakly or less than the wild type.

Take “BubR1, endogenous (from UniProt O60566 1-1050)”: the binding result in assay [1], in assay [2] and in assay [3] was “binds” in each case.

Consider “MAD2 (mitotic arrest deficient-2), endogenous (from UniProt Q13257 1-205)”, for which the binding entry in assay [1], in assay [2] and in assay [3] was “binds” throughout.

Turning to “glyceraldehyde 3-phosphate dehydrogenase (GAPDH), endogenous (from UniProt P04406 1-335)”, the binding result in assay [1], in assay [2] and in assay [3] was “no binding” in each case.

“β2-adaptin (subunit of adaptor protein-2, AP2), endogenous (from UniProt P63010 1-937)”: the binding entry in assay [1] and in assay [3] was “binds” in each case.
